{"source": "PubChem BioAssay AID1347417", "about": "(National Center for Advancing Translational Sciences (NCATS), 2020)", "note": "“And” between values parts separate entries of the source, which are not always exact repeats. Equal entries are not always repeated. The campaign covered roughly 120,000 compounds. About 5,300 (4.4%) were called active. Inconclusive results, whose numbers are uncertain, are shown with a selection of clear calls. Calls come from the whole dose curve; as a rule, active = well fitted inhibition curve with a large enough effect; inconclusive = small, poorly fitted or top-dose-only effect; inactive = no such curve, though single readings can be large or run the other way. Where the call is inconclusive, the potency comes from a doubtful curve fit. Potency is the fitted concentration of half-maximal effect; tags give direction and shape of the fitted curve."}
{"experiment": "qHTS Primary assay for Inhibitors of Plasmodium falciparum Dd2 growth in vitro; note: nearly all actives have a fitted effect of over 65% in size;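 for activity, negative = inhibition: plate controls were DMSO vehicle for no effect and reference drug for full effect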", "conditions": "P. falciparum Dd2 growth, SYBR Green, 72 h; activity, negative = inhibition: at 28.9 µM (top of the series) unless noted; series mostly up to 28.9 µM", "method_in_brief": "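Readout: SYBR Green fluorescence, 485 nm excitation, 535 nm emission, after ~16 h lysis at 37C. Before that, Dd2-infected red cells (2.5% hematocrit) grew 72 h with compound, 29 uM top final concentration.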"}
{"smiles": "CCc1cccc(NC(=O)N2CCC(Oc3ncccc3C(=O)N3CCOCC3)C2)c1", "note": "(centres undefined)", "activity, negative = inhibition": "inactive: 6.65%"}
{"smiles": "O=C(NCc1ccccc1)c1ccccc1OC1CN(Cc2ccc(O)c(F)c2)C1", "Potency": "inconclusive: 1.12 µM [inhibitor, full curve]"}
{"smiles": "Cc1ccc(N2CCC(NC(=O)c3ccc4[nH]ccc4c3)C2=O)cc1C", "note": "(centres undefined)", "Potency": "inconclusive: 17.8 µM [inhibitor, single point]"}
{"smiles": "COc1ccccc1CCC(=O)N1CC[C@@H]2[C@@H](CCC(=O)N2CCN)C1", "activity, negative = inhibition": "inactive: -3.38%"}
{"smiles": "O=C(Nc1ccc(Cl)cc1)N1CCC(c2nn(-c3ccc(F)cc3)c(=O)[nH]2)CC1", "Potency": "inconclusive: 10 µM [inhibitor, single point]"}
{"smiles": "Cc1noc(C)c1CN1CCCC(COc2ccccc2C(=O)N2CCC(C)CC2)C1", "note": "(centres undefined)", "activity, negative = inhibition": "inactive: -3.42%"}
{"smiles": "COc1cc(CN2CCN(S(=O)(=O)c3ccccc3)CC2)cc(OC)c1O", "activity, negative = inhibition": "inactive: -7.64%"}
{"smiles": "O=C(c1ccncc1)N1CCC2(CC1)CC(N(Cc1ccc(F)cc1)C1CC1)CCO2", "note": "(centres undefined)", "Potency": "inconclusive: 0.178 µM [inhibitor, partial curve, poor fit]"}
{"smiles": "CCN(CC)S(=O)(=O)c1ccc2c(c1)N(CC(=O)N1CCN(c3ccc(F)cc3)CC1)C(=O)CO2", "Potency": "inconclusive: 17.8 µM [inhibitor, single point]"}
{"smiles": "CCC(c1cccs1)N1C(=O)[C@H]2CN(CCC(C)C)C[C@H]2C1=O", "note": "(some centres undefined)", "Potency": "inconclusive: 5.01 µM [inhibitor, partial curve, poor fit]"}
{"smiles": "CC(C)n1cc(C(=O)NCc2cccnc2Oc2ccc(F)cc2F)cn1", "activity, negative = inhibition": "inactive: -6.85%"}
{"smiles": "O=C1NC[C@@H](CCC(=O)N2CCN(c3ccccc3)CC2)N2C[C@@H](NCc3ccccc3)C[C@@H]12", "activity, negative = inhibition": "inactive: -24.1%"}
{"smiles": "COc1cc(NC(=O)c2cc3n(n2)CC(c2ccc(Cl)cc2)OC3)c(OC)cc1Cl", "note": "(centres undefined)", "outcome": "inactive"}
{"smiles": "CCC(=O)N1CCc2oc(C)c(C(=O)N(C)C)c2C1", "outcome": "inactive"}
{"smiles": "N#Cc1cccc(C(=O)NC2CCN(c3cc(-c4ccccc4)[nH]n3)CC2)c1", "Potency": "inconclusive: 2.51 µM [inhibitor, partial curve]"}
{"smiles": "O=C1CCN(Cc2ccccc2)CCCC(c2nc(-c3cnccn3)no2)CCN1", "note": "(centres undefined)", "Potency": "inconclusive: 2.82 µM [inhibitor, single point]"}
{"smiles": "Cc1cc(Nc2cccc(Cl)c2)nc2ccc(NC(=O)Cc3cccc(C(F)(F)F)c3)cc12", "Potency": "inconclusive: 10 µM [inhibitor, single point]"}
{"smiles": "CN(Cc1cc2n(n1)CCNC2)Cc1cnc(-c2ccccc2)s1", "activity, negative = inhibition": "inactive: -6.47%"}
{"smiles": "COc1cc(C2CC(=O)Nc3cc4c(cc32)OCCO4)cc(Br)c1OC", "note": "(centres undefined)", "Potency": "active: 1 µM"}
{"smiles": "Fc1ccc(-c2noc3ncnc(NC4CCCCC4)c23)cc1", "Potency": "inconclusive: 17.8 µM [inhibitor, single point]"}
{"smiles": "CN1CCCC2(CCN(C(=O)CN3CCOc4ccccc4C3)C2)C1=O", "note": "(centres undefined)", "activity, negative = inhibition": "inactive: -11.2%"}
{"smiles": "Cc1cccc(NC(=O)C(=O)NCC(c2ccc3c(c2)OCO3)N2CCN(C)CC2)c1C", "note": "(centres undefined)", "activity, negative = inhibition": "inactive: -23.2%"}
{"smiles": "O[C@H]1[C@H](NCC2CCCC2)[C@@H](c2ccccc2)C[C@H]1O", "Potency": "active: 1.78 µM"}
{"smiles": "O=C(NC[C@H]1C[C@@H]2CCN1C[C@@H]2CN1CCC(Cc2ccccc2)CC1)c1ccco1", "Potency": "inconclusive: 8.91 µM [inhibitor, partial curve, poor fit]"}
{"smiles": "O=C(c1nnc(COc2ccc3cnccc3c2)n1-c1ccccc1)N1CCC[C@@H]1c1cccc(F)c1", "Potency": "inconclusive: 1.26 µM [inhibitor, partial curve, poor fit]"}
{"smiles": "Cc1ccc(-c2nnc(C3CN(C(=O)c4cccnc4C)CC34CCOCC4)o2)cc1", "note": "(centres undefined)", "activity, negative = inhibition": "inactive: -13.8%"}
{"smiles": "O=C(Nc1ccc(-c2nnc3n2CCCC3)cc1)c1ccc(Cl)cc1", "Potency": "active: 5.01 µM"}
{"smiles": "Cc1cccc(C(=O)N2CCCN(c3cc(-c4ccc(Cl)cc4)[nH]n3)CC2)c1", "Potency": "inconclusive: 3.98 µM [inhibitor, single point]"}
{"smiles": "COc1cc(NC(=O)CSc2nc3nc(C)c(Cc4ccc(C)cc4)c(C)n3n2)cc(OC)c1OC", "Potency": "inconclusive: 20 µM [inhibitor, partial curve, poor fit]"}
{"smiles": "Cc1cccc(-n2nc(C)c(CCC(=O)N3CCSCC3)c2Oc2ccc(F)cc2F)c1", "Potency": "inconclusive: 1.41 µM [inhibitor, full curve, poor fit]"}
{"smiles": "COC1C(=O)N(CC2CC2)C12CCN(C(=O)COc1ccc(F)cc1)CC2", "note": "(centres undefined)", "Potency": "inconclusive: 5.62 µM [inhibitor, partial curve, poor fit]"}
{"smiles": "O=C1NC2(CCCN(Cc3ccc(F)cc3)C2)Oc2ccccc21", "note": "(centres undefined)", "Potency": "inconclusive: 5.01 µM [inhibitor, partial curve, poor fit]"}
{"smiles": "Cc1ccccc1Cc1c(C)nc2nc(SCC(=O)NCCc3ccc(Cl)cc3)nn2c1C", "activity, negative = inhibition": "inactive: 18.2%"}
{"smiles": "Fc1ccc(N2CCN(c3nc(-c4ccccc4F)no3)CC2)cc1", "Potency": "inconclusive: 14.1 µM [inhibitor, single point]"}
{"smiles": "Cc1cccc(S(=O)(=O)N2CCc3c(C(=O)NCCN4CCCCC4)cccc32)c1", "Potency": "inconclusive: 1 µM [inhibitor, partial curve, poor fit]"}
{"smiles": "CCc1[nH]c2c(CNC(=O)C(C)O)cc(C)cc2c1C", "note": "(centres undefined)", "activity, negative = inhibition": "inactive: -6.14%"}
{"smiles": "O=S(=O)(c1ccc(F)cc1)N(Cc1nc(-c2ccc(Cl)cc2)no1)C1CCCCC1", "Potency": "inconclusive: 10 µM [inhibitor, single point]"}
{"smiles": "COc1ccc(NC(=O)c2c(NCc3sccc3C)sc3c2CCCCC3)c(OC)c1", "Potency": "active: 12.6 µM"}
{"smiles": "COc1ccc(C)cc1NC(=O)Cn1c(=O)ccc2cc(S(=O)(=O)N3CCC(C)CC3)ccc21", "Potency": "inconclusive: 17.8 µM [inhibitor, single point]"}
{"smiles": "CC1(c2ccccc2)N(Cc2ccccc2)C(=O)OC12CCN(C(=O)c1cccc(Cl)c1)CC2", "note": "(centres undefined)", "Potency": "inconclusive: 1.58 µM [inhibitor, full curve]"}
{"smiles": "COC(=O)c1ccc(NC(=O)CSc2ncc3c(n2)-c2cc(Cl)ccc2N(Cc2ccccc2)S3(=O)=O)cc1", "Potency": "inconclusive: 11.2 µM [inhibitor, single point]"}
{"smiles": "O=C(Cn1ncc(N2CCNCC2)cc1=O)NCCc1ccc(F)cc1", "activity, negative = inhibition": "inactive: -6.66%"}
{"smiles": "CC1=C[C@@H](CN(C)C)[C@H](C(C)C)C[C@H]1Cc1nc2ncc(Cl)cc2[nH]1", "Potency": "inconclusive: 2 µM [inhibitor, partial curve]"}
{"smiles": "Cc1ccc(CN2C(=O)[C@@H]3C[C@@H](O)CN3C3(CN(Cc4cccc(F)c4)C3)C2=O)o1", "Potency": "inconclusive: 15.8 µM [inhibitor, single point]"}
{"smiles": "O=[S+]1([O-])NC2(CCN(Cc3ccccc3)CC2)CNc2ccccc21", "Potency": "inconclusive: 1.41 µM [inhibitor, partial curve, poor fit]"}
{"smiles": "Cc1nocc1C(=O)N1C[C@@H](COc2ccccc2)[C@H](C(N)=O)C1", "activity, negative = inhibition": "inactive: -15.2%"}
{"smiles": "Cc1ncccc1C(=O)N1CCC(C(=O)N2CCCCCCNC(=O)CC2)CC1", "activity, negative = inhibition": "inactive: 9.62%"}
{"smiles": "O=C(NCC1CCN(c2cc(-c3ccccc3)[nH]n2)CC1)c1ccc(=O)[nH]c1", "Potency": "inconclusive: 6.31 µM [inhibitor, partial curve, poor fit]"}
{"smiles": "Oc1ccccc1CNC[C@H]1O[C@H](Cc2cc(CN3CCN(c4ccccc4)CC3)on2)CC[C@@H]1O", "Potency": "inconclusive: 5.01 µM [inhibitor, partial curve, poor fit]"}
{"smiles": "CCN1C(=O)COC[C@@H]1[C@H](O)c1ccc(NC(=O)CC(C)(C)C)cc1", "Potency": "inconclusive: 31.6 µM [inhibitor, single point]"}
{"smiles": "O=C(Nc1ccc2c(c1)OCCO2)N1CCC(Cc2nc(-c3ccncc3)n[nH]2)CC1", "Potency": "inconclusive: 0.282 µM [inhibitor, partial curve, poor fit]"}
{"smiles": "O=C(N[C@H]1CO[C@H]2[C@@H]1OC[C@@H]2Nc1nccc(C2CCCC2)n1)c1ccco1", "Potency": "inconclusive: 2.51 µM [inhibitor, full curve, poor fit]"}
{"smiles": "Cc1c(Cl)cccc1NC(=O)Nc1nnc(N(C)Cc2ccccc2)s1", "activity, negative = inhibition": "inconclusive: -184% [inhibitor] [at 5.79 µM]"}
{"smiles": "O=C(N1C[C@@H](CO)[C@H](c2ccncc2)C1)C1(c2ccccc2)CCCC1", "Potency": "inconclusive: 12.6 µM [inhibitor, single point]"}
{"smiles": "COc1ccc2c(c1)c(=O)c(S(=O)(=O)c1ccc(C)cc1)cn2Cc1ccccc1C", "Potency": "inconclusive: 1.41 µM [inhibitor, single point]"}
{"smiles": "CN(C)C[C@@H]1CN(Cc2ccccc2)C[C@H]1NC(=O)c1ccn(C)n1", "activity, negative = inhibition": "inactive: 5.49%"}
{"smiles": "Cc1ccc(NC(=O)N2CCC3(CCNC(=O)CC3)CC2)cc1F", "Potency": "inconclusive: 4.47 µM [inhibitor, single point]"}
{"smiles": "CCOC(=O)N1CCc2c(sc3c2c(=O)n(Cc2ccccc2)c(=O)n3CC(=O)Nc2ccc(C)c(C)c2)C1", "Potency": "inconclusive: 3.16 µM [inhibitor, single point]"}
{"smiles": "CCC(C(=O)Nc1cc(F)ccc1F)n1nc(-c2cc(C)ccc2C)ccc1=O", "note": "(centres undefined)", "Potency": "inconclusive: 17.8 µM [inhibitor, single point]"}
{"smiles": "O=C(CCS(=O)(=O)c1cc(Br)cc2c1N(C(=O)C1CC1)CC2)NCc1ccccc1Cl", "Potency": "inconclusive: 11.2 µM [inhibitor, partial curve]"}
{"smiles": "COc1cccc(-c2nc(SCC(=O)NC3CCCC3)c(-c3ccccc3)[nH]2)c1", "Potency": "inconclusive: 15.8 µM [inhibitor, single point]"}
{"smiles": "CCOc1ccc(-c2nc(SCC(=O)NC3CCCC3)c(-c3ccccc3)[nH]2)cc1OC", "Potency": "inconclusive: 17.8 µM [inhibitor, single point]"}
{"smiles": "CCN(CC)Cc1cnc2c(C(=O)NC3CCCNC3)cnn2c1", "note": "(centres undefined)", "activity, negative = inhibition": "inactive: -1.4%"}
{"smiles": "CCCC1=Nc2cc(C(=O)NCCc3ccccc3)ccc2Sc2ccc(C)cc21", "Potency": "inconclusive: 1.58 µM [inhibitor, full curve, poor fit] and active: 6.31 µM"}
